According to article PMC7819943, “Rice protein-binding microarrays: a tool to detect cis-acting elements near promoter regions in rice”:
Some of the results follow.

Each sequence was assayed against T1, OsWOX13 (Oryza sativa, UniProt Q5QMM3 1-267) (assay: protein-binding microarray (RPBM); PBS, 2% BSA, 51.3 ng/ul salmon testes DNA, 50 uM zinc acetate, 200 nM TF, 25 C, 1 h; high values mean tight binding). Details: protein: recombinant; tags: N-terminal polyhistidine and DsRed monomer fusion (pET32a); label: CyDye5-dUTP incorporated in the synthesized complementary strand; 3' TTTTT single-stranded linker to array surface; dsDNA, one strand shown.
T1 sequence: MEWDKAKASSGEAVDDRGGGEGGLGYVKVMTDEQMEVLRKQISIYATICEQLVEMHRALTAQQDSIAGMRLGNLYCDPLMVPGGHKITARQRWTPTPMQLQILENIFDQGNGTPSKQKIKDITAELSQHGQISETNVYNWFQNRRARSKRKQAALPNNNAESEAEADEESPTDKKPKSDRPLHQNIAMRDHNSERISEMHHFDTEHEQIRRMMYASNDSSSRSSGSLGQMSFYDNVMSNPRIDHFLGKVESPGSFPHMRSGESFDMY
Summary of the method: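 The binding signal is fluorescence intensity per feature, in arbitrary units, read on an Axon 4000B scanner. Polyhistidine- and DsRed-tagged transcription factors (N-terminal fusions) from E. coli BL21-CodonPlus were purified on Ni–NTA and applied at 200 nM for 1 h at 25 °C to a double-stranded, BSA-blocked custom Agilent array in buffer with 50 µM zinc acetate.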
For “TAGAGACATATGTTAATTACCTTGTACATGAATTTTATTTCGGAGTCACCTAGTGCAG”, the binding signal was 8060 fluorescence intensity (a.u.). With “GTAATGCCTCCTGTTAATTTTAATTGGCAAGCATAAGTGGCGGAGTCACCTAGTGCAG” the binding signal was 12300 fluorescence intensity (a.u.). “TTTCAATCTTACAAAATTTTGGCAATTCAAAATTTGGATACGGAGTCACCTAGTGCAG” was tested, and the binding signal was 14800 fluorescence intensity (a.u.). In the case of “TAACTAAATTTACAATTCTTAATTATGATAGTTTCAGCCACGGAGTCACCTAGTGCAG”, the binding signal is reported as 37700 fluorescence intensity (a.u.). For “CCATGAGTTCCTTTCAATCAATGCCTAACTCTCTCTCTCTCGGAGTCACCTAGTGCAG”, the binding signal was 13400 fluorescence intensity (a.u.). For “ACATTTAACATCTTTAATTTTCTAAACCGGATAAATAACCCGGAGTCACCTAGTGCAG”, the binding signal was 7000 fluorescence intensity (a.u.). For “ACTGCTAATTAACCCTCTATAAATGCATGCCTCTCACCACCGGAGTCACCTAGTGCAG”, the binding signal was 30400 fluorescence intensity (a.u.). In the case of “CTCTGACTGGGCTTGACATCCTGCTATAGTCAAGCTGAAACGGAGTCACCTAGTGCAG”, the binding signal is reported as 9600 fluorescence intensity (a.u.). For “TTCATGATTAATTAAGTAATAATTAAAATAAAATTTTAAACGGAGTCACCTAGTGCAG”, the binding signal was 22800 fluorescence intensity (a.u.). “TACTTCGTGATTGTTTGATTATATGGAGAAGATTGAAGAACGGAGTCACCTAGTGCAG” was tested, and the binding signal was 27900 fluorescence intensity (a.u.). With “TTCTGGTACATTGACAGTGAATTACACGTTCTATTTATAGCGGAGTCACCTAGTGCAG” the binding signal was 3700 fluorescence intensity (a.u.). With “ACAATTGATTTCGAACTCAATCTCGTCAGTTCCCCTTGATCGGAGTCACCTAGTGCAG” the binding signal was 39600 fluorescence intensity (a.u.). For “CGAGATAATTAAAGGATAATAAAATTTGGCGGGGAGAAGCCGGAGTCACCTAGTGCAG”, the binding signal was 19500 fluorescence intensity (a.u.). “GCTTTATGTGATTAAATCATGCTAACAGACCTGAGATATGCGGAGTCACCTAGTGCAG” was tested, and the binding signal was 16800 fluorescence intensity (a.u.). For “TTAGTGATTTTGACCCAATTTTATCCAACGTTACGGCTGACGGAGTCACCTAGTGCAG”, the binding signal was 5500 fluorescence intensity (a.u.). “CGGTTTTGAGCTAATTAGACTAATCTTCCATTTGACGGACCGGAGTCACCTAGTGCAG” was tested, and the binding signal was 15500 fluorescence intensity (a.u.). With “CTTTCAATTTGGAGATTCAAAATTAACTCTCAATATCCAGCGGAGTCACCTAGTGCAG” the binding signal was 4870 fluorescence intensity (a.u.). “CTACACAATGGTGATTGATGCTTTCTGTAGGAAAGGGGACCGGAGTCACCTAGTGCAG” was tested, and the binding signal was 15200 fluorescence intensity (a.u.). For “CCTGACAGGTAAGGCCCACATGACAGAGAGATACGTTCCTCGGAGTCACCTAGTGCAG”, the binding signal was 28600 fluorescence intensity (a.u.). With “AGCAAATTTTGCCATGTCACATCGACATCATCCCGGCACGCGGAGTCACCTAGTGCAG” the binding signal was 4070 fluorescence intensity (a.u.). For “ATTTACCTAATTATAACCATGCCATTACAATTTCACAAATCGGAGTCACCTAGTGCAG”, the binding signal was 3490 fluorescence intensity (a.u.). In the case of “ATCGCAAGATTGACTCTCCTCACCCATGTGCGAGTGATTTCGGAGTCACCTAGTGCAG”, the binding signal is reported as 11700 fluorescence intensity (a.u.). For “CTATAACAGGCAATAATGGCAAGCATCTTATAAGAAAATTCGGAGTCACCTAGTGCAG”, the binding signal was 4330 fluorescence intensity (a.u.). “CTTGTCAATCTACAGAGAGTCCACGAGTTAGTAGTATGTGCGGAGTCACCTAGTGCAG” was tested, and the binding signal was 8690 fluorescence intensity (a.u.). With “ACACTATAAATAGACAAAATACTTGGCTATACCTCTACCTCGGAGTCACCTAGTGCAG” the binding signal was 7490 fluorescence intensity (a.u.). With “AGTGATTAGTGAAGCAAAGGAAGACGACGAGTGACACGAGCGGAGTCACCTAGTGCAG” the binding signal was 21900 fluorescence intensity (a.u.). In the case of “ACCTTTCTTTATTTGCCTCCCTAATTGGATCGATACAAAACGGAGTCACCTAGTGCAG”, the binding signal is reported as 6490 fluorescence intensity (a.u.). For “TAAATTGTCTAATTTCATAGTAGAGTGACATAAAGTGTCCCGGAGTCACCTAGTGCAG”, the binding signal was 18600 fluorescence intensity (a.u.). “ACCCTTTCAATCATCCTCCTCCAGCAGAGCAAGCAGCCAACGGAGTCACCTAGTGCAG” was tested, and the binding signal was 11000 fluorescence intensity (a.u.). For “TATACTAATTGTAGTACTCATAGAAATACGTATGATGCCGCGGAGTCACCTAGTGCAG”, the binding signal was 8790 fluorescence intensity (a.u.). With “GAAAAGATTTGATTATTCAAGATCCAACCACTAGGGACAACGGAGTCACCTAGTGCAG” the binding signal was 8030 fluorescence intensity (a.u.). With “CGAGAGATAGATTGTTCAATGAGAGTGAAATGAACAAGAGCGGAGTCACCTAGTGCAG” the binding signal was 6930 fluorescence intensity (a.u.). “ATTTACAAATTAATTTACGTTTACAAATATGCCGTTTCGCCGGAGTCACCTAGTGCAG” was tested, and the binding signal was 42300 fluorescence intensity (a.u.). For “ACAAGATGATTTAACAGGTTATACCAAGTCAAAGTGCCAACGGAGTCACCTAGTGCAG”, the binding signal was 19900 fluorescence intensity (a.u.). With “ATAATGATGTTTCGATCGCTAATTAACCGCTACTACGTATCGGAGTCACCTAGTGCAG” the binding signal was 7900 fluorescence intensity (a.u.). For “TCAAGGGGATTGGATTGTTAGAGATGGAGATTTCAGAGAACGGAGTCACCTAGTGCAG”, the binding signal was 6870 fluorescence intensity (a.u.). With “GGAGCAATTAAGCTTAAAAGATTCGTCTAACAATTTACACCGGAGTCACCTAGTGCAG” the binding signal was 4640 fluorescence intensity (a.u.). “GGCCGCAATTAATTAAGTCAACACGAACCGCAGCCTCCCACGGAGTCACCTAGTGCAG” was tested, and the binding signal was 16500 fluorescence intensity (a.u.). With “AATATGTAATTTGTTTAACACTTTAAATGTGCGTCCATATCGGAGTCACCTAGTGCAG” the binding signal was 11300 fluorescence intensity (a.u.). For “ACTATAGATTTAGTGCCAATTTAATCACCAAACCATAGCACGGAGTCACCTAGTGCAG”, the binding signal was 7880 fluorescence intensity (a.u.). In the case of “TTCATACAATTATTGGCTATAAGGAAACGACGTGTCCCTACGGAGTCACCTAGTGCAG”, the binding signal is reported as 5160 fluorescence intensity (a.u.). For “ATAATTAATCCAAATCAATCAAGCTAAGCTACGTCTCCTTCGGAGTCACCTAGTGCAG”, the binding signal was 34600 fluorescence intensity (a.u.). With “TAAAACGAGTGACAAATAATTAATTGCTACAGCTTAAAAGCGGAGTCACCTAGTGCAG” the binding signal was 15600 fluorescence intensity (a.u.). For “CGTGGATTAATTAGTTGGCAAAAGCTAAGTACAAGTCATTCGGAGTCACCTAGTGCAG”, the binding signal was 15300 fluorescence intensity (a.u.). For “TCATTTATTAAAATAGACGTAACTTTCTCATACGGACTCGCGGAGTCACCTAGTGCAG”, the binding signal was 3210 fluorescence intensity (a.u.). For “TGGTGATGATGCGATTTACACAGATGGCGGCGCTGGTGTGCGGAGTCACCTAGTGCAG”, the binding signal was 4240 fluorescence intensity (a.u.). With “TAATACCCCTTAATTAATAATACATAGTTGGATGTGGGATCGGAGTCACCTAGTGCAG” the binding signal was 4620 fluorescence intensity (a.u.). With “TCAGATCGATGGTTGATTGCACTGCACTGCAGATGAAAGACGGAGTCACCTAGTGCAG” the binding signal was 6190 fluorescence intensity (a.u.). With “TAATTTGTAATTATAGAATCTAAATTAAACTGACTACCAACGGAGTCACCTAGTGCAG” the binding signal was 11700 fluorescence intensity (a.u.). In the case of “CCCATCTGTCAGTGTGTCAGACTGTCAGTGTGCCGCTCACCGGAGTCACCTAGTGCAG”, the binding signal is reported as 3520 fluorescence intensity (a.u.). For “TTAGATTAGATAAGATTGGTAGGATGTGATTAGTTGGGGACGGAGTCACCTAGTGCAG”, the binding signal was 30200 fluorescence intensity (a.u.). With “TTTTATTTAATTCCTGTTGATTTAATTCATTTAGTCATTTCGGAGTCACCTAGTGCAG” the binding signal was 8970 fluorescence intensity (a.u.). With “GAATCCATTAACAGGAACAGAGTTACTGCATCTTCTTTGGCGGAGTCACCTAGTGCAG” the binding signal was 4430 fluorescence intensity (a.u.). With “CGCTAATTAGCGATCTTGTCTTAATAACAACTGGATTAATCGGAGTCACCTAGTGCAG” the binding signal was 38900 fluorescence intensity (a.u.).
